Source: patent US20250281631A1, “ANTIBODY-DRUG CONJUGATES AND PREPARATION METHODS AND USE THEREOF” (SICHUAN KELUN-BIOTECH BIOPHARMACEUTICAL CO., LTD, priority 2022, published 2025)

Experiments:
HEK293T negative cells = assay: Bystander effect test, negative cells alone (flow cytometry, PI); assay type: cell-based; conditions: ADC 20 nM, 4 nM, 0.8 nM dilutions, 4 days
Protocol: 3. Bystander Effect of Anti-Human HER3 Antibody-Drug Conjugates
HEK293T and HEK293T-h HER3 cells were digested with 0.25% Trypsin-EDTA (manufacturer: Gibco), counted, and an appropriate amount of the cells were taken, washed twice with 1×PBS, the cell density was adjusted to 1×10^6 cells/ml, and then Cell Trace Violet was added to reach a final concentration of 5 μM for labeling, mixed well and incubated in an incubator for 20 min, then the cells were washed with growth medium and counted, plated on 24-well plates (500 μl/well) according to the following ratios: HEK293T-labeled: HEK293T=4000:12000 cells/well, HEK293T-labeled: HEK293T-h HER3=4000:12000 cells/well, HEK293T-h HER3-labeled: HEK293T-h HER3=4000:12000 cells/well, and cultured overnight at 37° C., 5% CO2;
On the next day, ADC was diluted with growth medium to reach concentrations of 20 nM, 4 nM, and 0.8 nM, then 500 μl of the diluted ADC was taken and added to the corresponding 24-well plates containing cells, and the plates were placed and cultured in an incubator at 37° C., 5% CO2 for 4 days;
HEK293T and HEK293T-h HER3 cells were digested with 0.25% Trypsin-EDTA, added to a growth medium containing PI with a final concentration of 3 μM, mixed well, incubated at room temperature for 15 min, and then detected by flow cytometry (Thermo, model: Attune NxT).

[1] = test system: human breast cancer MDA-MB-453 xenograft tumor model; assay: In vivo drug efficacy in MDA-MB-453 CDX model; set-up: species or system female NCG immunodeficient mice; conditions: for Tumor regression CR (n = 6) / Tumor regression PR (n = 6): Day 32, number of animals of 6; for T/C / TGI / Tumor volume (x ± SEM): tail vein, Day 32
Source text: The following formula was used to calculate the tumor growth inhibition rate TGI (%), which was used to evaluate the tumor inhibitory efficacy:
[formula] • wherein, • VTend represented a mean value of tumor volume at the end of the experiment in a treatment group • VTstart represented a mean value of tumor volume at the beginning of the administration in a treatment group • VCend represented a mean value of tumor volume at the end of the experiment in the negative control group • VCstart represented a mean value of tumor volume at the beginning of the administration in the negative control group
7. Detection of In Vivo Drug Efficacy of Anti-Human HER3 Antibody-Drug Conjugates in MDA-MB-453 Model
Human breast cancer cell line MDA-MB-453 was cultured in DMEM/F12 medium containing 10% fetal bovine serum at 37° C. and 5% CO2. The MDA-MB-453 cells in the exponential growth phase were collected, resuspended to an appropriate concentration by adding PBS and Matrigel at 50% of the final concentration, and inoculated subcutaneously in female NCG immunodeficient mice to establish a human breast cancer xenograft tumor model. When the average volume of tumor was about 150 mm^3, the animals were randomly divided into groups according to the tumor size, including: vehicle control group, hIgG1-A-07-A 3 mg/kg group, ADC 22B6-A-07-A-1 1 mg/kg group, 3 mg/kg group and 10 mg/kg group, hIgG1-A-01 3 mg/kg group, U1-59-A-01 3 mg/kg group and 10 mg/kg group, hIgG1-B-03-2 3 mg/kg group, ADC 22B6-B-03-2 3 mg/kg group. After the grouping, the animals were given a single dose via injection through tail vein on Day0. After administration, the tumor volume and body weight of the mice were observed and regularly measured, and the specific results were shown in Table 36, and FIGS. 7A, 7B.

MDA-MB-453 cells = assay: Cell affinity of anti-human HER3 antibodies and ADCs by flow cytometry; assay type: binding; conditions: MDA-MB-453 cells, flow cytometry, Table 32
Source text: (§1) 1. Detection of Cell Affinity of Anti-Human HER3 Antibodies and their Drug Conjugates
(§2) The affinity of anti-human HER3 ADC to MDA-MB-453, NCI-H358, KPL-4, and A431 cells was detected by flow cytometry (Beckman, model Cytoflex).
(§3) Adherent MDA-MB-453, NCI-H358, KPL-4, A431 cells were digested with Tryple (manufacturer: Gibco) solution, counted, and an appropriate amount of the cells were taken, washed twice with 1×PBS, resuspended in 1% BSA in PBS solution, and then transferred to a 96-well sharp-bottom plate, 50 μl per well; candidate antibodies and drug conjugates thereof were diluted with 1% BSA in PBS solution by 3-fold or 2.5-fold serial dilution starting from 5 μg/mL, and then 50 μl of the diluted antibody or antibody-drug conjugate was added to the sharp-bottom plate containing the cells, and incubation was carried out at 4° C. for 40 minutes; the cells were washed twice with PBS, then added with 50 μl of diluted secondary antibody to each well, mixed, and incubated at 4° C. for 30 minutes; the cells were washed with PBS twice, then resuspended in 400 μl of PBS and detected by flow cytometry. Data processing: the average fluorescence signal values were exported, and then input into GraphPad Prism 6 software to calculate EC50. The results were shown in Table 32 and FIGS. 1A, 1B, 1C, and 1D. […] Moreover, when the naked antibody was formed into ADC through conjugation, the affinity to cells was less affected, and the affinity of 22B6 formed into ADC by conjugation was still the highest.

A431 cells = assay: as above; assay type: binding; conditions: Table 32
Source text: as §1, §2, §3

KPL-4 cells = assay: as above; assay type: binding; conditions: Table 32
Source text: as §1, §2, §3

NCI-H358 cells = assay: as above; assay type: binding; conditions: Table 32
Source text: as §1, §2, §3

B1: 22B6-A-07-A-1: ADC of antibody 22B6D2-hIgG1 conjugated to drug-linker A-07-A, DAR 7.99 (conjugate)
heavy: EVHLVESGGGVVQPGRSLRLSCATSGFTFRSYGMHWVRQAPGKGLEWVAVIWYDGSNKYYADSVKGRFTISRDISKNTLYLQMNSLTAEDTAVYYCARYYYDSNGYYDAFDIWGQGTMVTVSSASTKGPSVFPLAPSSKSTSGGTAALGCLVKDYFPEPVTVSWNSGALTSGVHTFPAVLQSSGLYSLSSVVTVPSSSLGTQTYICNVNHKPSNTKVDKRV[in this place human IgG1 Fc]
light: DIQLTQSPSFLSASVGDRVTITCRASQGISNYLAWYQQKPGKAPKLLIFAASTLQSGVPSRFSGSGSGAEFTLTISSLEPEDFATYYCQQLNSYPITFGQGTRLEIKRTVAAPSVFIFPPSDEQLKSGTASVVCLLNNFYPREAKVQWKVDNALQSGNSQESVTEQDSKDSTYSLSSTLTLSKADYEKHKVYACEVTHQGLSSPVTKSFNRGEC
killing of HEK293T negative cells (HEK293T negative cells): basically did not kill HEK293T negative cells | Tumor regression CR (n = 6) ([1]; 1 mg/kg single dose): 0/0 | Tumor regression PR (n = 6) ([1]; 1 mg/kg single dose): 0/0 | T/C ([1]; 1 mg/kg single dose): 55.64% | TGI ([1]; 1 mg/kg single dose): 62.07% | Tumor volume (x ± SEM) ([1]; 1 mg/kg single dose): 291.74 ± 18.54 mm^3 | TGI ([1]; 1 mg/kg, single dose): 62.07% | Tumor regression CR (n = 6) ([1]; 3 mg/kg single dose): 0 | Tumor regression PR (n = 6) ([1]; 3 mg/kg single dose): 3 | T/C ([1]; 3 mg/kg single dose): 23.05% | TGI ([1]; 3 mg/kg single dose): 118.30% | Tumor volume (x ± SEM) ([1]; 3 mg/kg single dose): 120.03 ± 25.22 mm^3 | TGI ([1]; 3 mg/kg, single dose): 118.30% | Tumor regression CR (n = 6) ([1]; 10 mg/kg single dose): 6 | Tumor regression PR (n = 6) ([1]; 10 mg/kg single dose): 0 | T/C ([1]; 10 mg/kg single dose): 0.00% | TGI ([1]; 10 mg/kg single dose): 200.00% | Tumor volume (x ± SEM) ([1]; 10 mg/kg single dose): 0.00 ± 0.00 mm^3 | TGI ([1]; 10 mg/kg, single dose): 200.00% | tumor regression ([1]; 10 mg/kg, single dose, no growth observed by Day32): completely regressed from Day 19 | EC50 cell affinity (MDA-MB-453 cells): 0.05598 µg/mL | EC50 cell affinity (A431 cells): 0.02836 µg/mL | EC50 cell affinity (KPL-4 cells): 0.03251 µg/mL | EC50 cell affinity (NCI-H358 cells): 0.03291 µg/mL
